Data taken from the BET-seq Pho4 binding data (Le et al. 2018).
Some of the results follow. Values were computed here from the reads of four pooled replicates and scatter widely.

What follows are sequences tested against T1, Pho4 (S. cerevisiae) (UniProt P07270) (assay: relative binding free energy (BET-seq); higher = weaker binding). Conditions: reference: library average.
T1 sequence: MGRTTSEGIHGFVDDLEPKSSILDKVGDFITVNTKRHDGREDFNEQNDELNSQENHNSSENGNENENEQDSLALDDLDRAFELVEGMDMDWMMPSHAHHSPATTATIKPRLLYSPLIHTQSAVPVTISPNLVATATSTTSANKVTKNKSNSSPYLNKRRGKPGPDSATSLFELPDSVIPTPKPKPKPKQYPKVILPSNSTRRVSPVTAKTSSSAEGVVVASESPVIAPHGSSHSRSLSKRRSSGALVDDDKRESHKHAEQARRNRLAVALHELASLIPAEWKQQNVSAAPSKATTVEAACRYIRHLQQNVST
In the case of GGCGGCACGTGTCGTG, the “relative binding free energy” value was -0.05 kcal/mol. In the case of AATCGCACGTGGTTTG, the “relative binding free energy” value was -0.09 kcal/mol. With ATTGTCACGTGCGAAG the “relative binding free energy” value was 0.12 kcal/mol. In the case of ATCGTCACGTGTGCGG, the “relative binding free energy” value was 0.08 kcal/mol. For ATGATCACGTGTACGT, the “relative binding free energy” value was 0.15 kcal/mol. In the case of GCGCGCACGTGTGGGA, the “relative binding free energy” value was -0.01 kcal/mol. In the case of AGTAGCACGTGCGGTG, the “relative binding free energy” value was -0.2 kcal/mol. With CTTGTCACGTGGAAGA the “relative binding free energy” value was 0.33 kcal/mol. For CCGGACACGTGTGGGA, the “relative binding free energy” value was 0.21 kcal/mol. In the case of GGTGGCACGTGCAGGG, the “relative binding free energy” value was -0.05 kcal/mol. For GAGCGCACGTGGTGGG, the “relative binding free energy” value was -0.12 kcal/mol. In the case of CGATGCACGTGGTTTG, the “relative binding free energy” value was -0.15 kcal/mol. CTGATCACGTGGGTTG was tested, and the “relative binding free energy” value was 0.02 kcal/mol. With GTAGGCACGTGCGTTC the “relative binding free energy” value was -0.07 kcal/mol. In the case of TAAGACACGTGTTTGA, the “relative binding free energy” value was -0.03 kcal/mol. In the case of AAGCACACGTGGTGGG, the “relative binding free energy” value was 0.08 kcal/mol. With AAGACCACGTGGGTTG the “relative binding free energy” value was -0.01 kcal/mol. For GGTGCCACGTGGGGTG, the “relative binding free energy” value was -0.17 kcal/mol. For TGGTGCACGTGCGGAG, the “relative binding free energy” value was 0.02 kcal/mol. With ATTTCCACGTGGGCGT the “relative binding free energy” value was -0.07 kcal/mol. For ATAATCACGTGTCTGT, the “relative binding free energy” value was 0.17 kcal/mol. With ATATTCACGTGTATGC the “relative binding free energy” value was 0.19 kcal/mol. CTATTCACGTGGGGCA was tested, and the “relative binding free energy” value was 0.23 kcal/mol. In the case of TGGTGCACGTGGTGGA, the “relative binding free energy” value was -0.06 kcal/mol. With GTGGCCACGTGTGGCG the “relative binding free energy” value was -0.09 kcal/mol. For ATTAGCACGTGAGTTA, the “relative binding free energy” value was 0.24 kcal/mol. For GATTTCACGTGGGCGA, the “relative binding free energy” value was 0.45 kcal/mol. In the case of TATGACACGTGGTGAT, the “relative binding free energy” value was -0.05 kcal/mol. GGCGCCACGTGGCTGG was tested, and the “relative binding free energy” value was -0.09 kcal/mol. ATGGTCACGTGTGGAC was tested, and the “relative binding free energy” value was 0.24 kcal/mol. In the case of AGTTTCACGTGGGGAT, the “relative binding free energy” value was 0.14 kcal/mol. In the case of AGTGGCACGTGTTTCA, the “relative binding free energy” value was -0.23 kcal/mol. With TTAAACACGTGGGATG the “relative binding free energy” value was -0.12 kcal/mol. With TGAGCCACGTGTTTAG the “relative binding free energy” value was 0.07 kcal/mol. CGTGTCACGTGGTTAT was tested, and the “relative binding free energy” value was 0.07 kcal/mol. GCGTTCACGTGGGTTT was tested, and the “relative binding free energy” value was 0.31 kcal/mol. With GTAAGCACGTGGATGA the “relative binding free energy” value was -0.06 kcal/mol. With TTGATCACGTGCGATT the “relative binding free energy” value was 0.22 kcal/mol. In the case of AGTGTCACGTGGTAGC, the “relative binding free energy” value was 0.09 kcal/mol. For TGGTGCACGTGATACT, the “relative binding free energy” value was 0.05 kcal/mol. In the case of CTTCGCACGTGGTTAT, the “relative binding free energy” value was -0.06 kcal/mol. With TTAGTCACGTGCTTGT the “relative binding free energy” value was 0.12 kcal/mol. In the case of CTCTTCACGTGGTGTG, the “relative binding free energy” value was 0.23 kcal/mol. In the case of GGGCTCACGTGAGCTG, the “relative binding free energy” value was 0.44 kcal/mol. In the case of TACGGCACGTGATTGT, the “relative binding free energy” value was 0.15 kcal/mol. For ACTGTCACGTGGCTGT, the “relative binding free energy” value was 0.12 kcal/mol. In the case of GGAGCCACGTGTGGTT, the “relative binding free energy” value was 0.11 kcal/mol. With GTGGTCACGTGACGGT the “relative binding free energy” value was 0.14 kcal/mol. In the case of CATGACACGTGTAGGG, the “relative binding free energy” value was 0.03 kcal/mol. For GCTGTCACGTGGTTTT, the “relative binding free energy” value was 0.14 kcal/mol. For TGGAACACGTGGGGGC, the “relative binding free energy” value was -0.12 kcal/mol. With AGTTTCACGTGTGGTC the “relative binding free energy” value was 0.36 kcal/mol. In the case of TAGGTCACGTGGTTCA, the “relative binding free energy” value was 0.02 kcal/mol. TTATTCACGTGACGGT was tested, and the “relative binding free energy” value was 0.26 kcal/mol. In the case of TTTATCACGTGTTTCT, the “relative binding free energy” value was 0.08 kcal/mol. In the case of TGCGACACGTGTAGGT, the “relative binding free energy” value was 0.06 kcal/mol. GTTATCACGTGTTGCT was tested, and the “relative binding free energy” value was 0.09 kcal/mol. ACAGTCACGTGGGGCT was tested, and the “relative binding free energy” value was 0.05 kcal/mol. AGTCCCACGTGTGGTG was tested, and the “relative binding free energy” value was -0.07 kcal/mol. In the case of TTTAGCACGTGGGTAA, the “relative binding free energy” value was -0.23 kcal/mol. With ACGGACACGTGGTGGA the “relative binding free energy” value was -0.04 kcal/mol. With CGAGGCACGTGTGAGA the “relative binding free energy” value was -0.05 kcal/mol. In the case of TGGTTCACGTGGTTTT, the “relative binding free energy” value was 0.22 kcal/mol. With GTAGTCACGTGATAAG the “relative binding free energy” value was 0.2 kcal/mol. CGATGCACGTGGTGTA was tested, and the “relative binding free energy” value was -0.15 kcal/mol. In the case of TGGAGCACGTGGCATT, the “relative binding free energy” value was -0.22 kcal/mol. In the case of TAAGTCACGTGAGCGG, the “relative binding free energy” value was 0.14 kcal/mol. TGCGGCACGTGTTATT was tested, and the “relative binding free energy” value was -0.09 kcal/mol. For GTGTACACGTGGCTTG, the “relative binding free energy” value was 0.08 kcal/mol. In the case of TCGTTCACGTGCCGGG, the “relative binding free energy” value was 0.41 kcal/mol. In the case of TATAGCACGTGGGCTT, the “relative binding free energy” value was -0.18 kcal/mol. In the case of TTAAACACGTGAAGTA, the “relative binding free energy” value was 0.29 kcal/mol. For ATTTGCACGTGGTGTT, the “relative binding free energy” value was -0.09 kcal/mol. In the case of CGGGTCACGTGCGGCT, the “relative binding free energy” value was 0.04 kcal/mol. With GGGTGCACGTGCATTT the “relative binding free energy” value was 0.02 kcal/mol. GATGGCACGTGTTGGA was tested, and the “relative binding free energy” value was 0.02 kcal/mol. With GGTTTCACGTGGTCTA the “relative binding free energy” value was 0.4 kcal/mol. TGTGTCACGTGTGAGT was tested, and the “relative binding free energy” value was 0.16 kcal/mol. TGGAGCACGTGAAAGT was tested, and the “relative binding free energy” value was 0.24 kcal/mol. In the case of GCATTCACGTGTTTTG, the “relative binding free energy” value was 0.22 kcal/mol. In the case of GAGATCACGTGTGGAT, the “relative binding free energy” value was 0.42 kcal/mol. GGTTCCACGTGGGATG was tested, and the “relative binding free energy” value was 0.04 kcal/mol. With ATGTGCACGTGAGCGG the “relative binding free energy” value was 0 kcal/mol. In the case of TGGGACACGTGTTACG, the “relative binding free energy” value was 0.1 kcal/mol. TAATGCACGTGGGTCG was tested, and the “relative binding free energy” value was -0.21 kcal/mol. With CGTGACACGTGATGTT the “relative binding free energy” value was 0.04 kcal/mol. For CGGGACACGTGGGGCA, the “relative binding free energy” value was -0.2 kcal/mol. In the case of AGGTTCACGTGTGTAC, the “relative binding free energy” value was 0.31 kcal/mol. In the case of ATTTTCACGTGATTTT, the “relative binding free energy” value was 0.33 kcal/mol. With TTTAGCACGTGAAGTG the “relative binding free energy” value was 0.15 kcal/mol. For ATGGTCACGTGTCTAA, the “relative binding free energy” value was 0.18 kcal/mol. In the case of AGGTGCACGTGCTCGG, the “relative binding free energy” value was -0.11 kcal/mol. GGACTCACGTGGTATG was tested, and the “relative binding free energy” value was 0.2 kcal/mol. With GGAGACACGTGGTGAT the “relative binding free energy” value was -0.02 kcal/mol. For TGCGGCACGTGGTGAG, the “relative binding free energy” value was -0.07 kcal/mol. AAGGACACGTGGGGAA was tested, and the “relative binding free energy” value was -0.03 kcal/mol. For GGGGCCACGTGCGGAG, the “relative binding free energy” value was -0.24 kcal/mol. With CGTGCCACGTGGGATG the “relative binding free energy” value was -0.13 kcal/mol. For GGTAGCACGTGGTTCA, the “relative binding free energy” value was 0 kcal/mol. With GTATCCACGTGTGTGG the “relative binding free energy” value was -0.08 kcal/mol. With AATCTCACGTGGGGAG the “relative binding free energy” value was 0.22 kcal/mol. With GATTGCACGTGGACGA the “relative binding free energy” value was 0.29 kcal/mol. For TGAAACACGTGGTGTG, the “relative binding free energy” value was -0.19 kcal/mol. For GTTGTCACGTGTCTAG, the “relative binding free energy” value was 0.17 kcal/mol. TGGAGCACGTGTTGGT was tested, and the “relative binding free energy” value was -0.08 kcal/mol. With TTGTTCACGTGGATTC the “relative binding free energy” value was 0.26 kcal/mol. With GTGTTCACGTGCGCAG the “relative binding free energy” value was 0.14 kcal/mol. In the case of TCATACACGTGGGAGT, the “relative binding free energy” value was -0.08 kcal/mol. For TTGTTCACGTGGCATA, the “relative binding free energy” value was 0.07 kcal/mol. For CGTATCACGTGAGATT, the “relative binding free energy” value was 0.26 kcal/mol. In the case of GTACTCACGTGTATTT, the “relative binding free energy” value was 0.3 kcal/mol. In the case of ATGGGCACGTGTAACG, the “relative binding free energy” value was -0.11 kcal/mol. In the case of GGGGACACGTGAGATG, the “relative binding free energy” value was 0.36 kcal/mol. In the case of ATTGGCACGTGTATGC, the “relative binding free energy” value was -0.04 kcal/mol. For TTGTGCACGTGGTTAC, the “relative binding free energy” value was -0.22 kcal/mol. With TGCGGCACGTGATGGA the “relative binding free energy” value was 0.07 kcal/mol. With GGGGTCACGTGCGGCA the “relative binding free energy” value was 0.01 kcal/mol. For GTAGGCACGTGGATTG, the “relative binding free energy” value was 0.09 kcal/mol. In the case of AGGATCACGTGCTGTT, the “relative binding free energy” value was 0.13 kcal/mol. For TTGGGCACGTGTCCGT, the “relative binding free energy” value was -0.03 kcal/mol. With TCTGTCACGTGGGGAA the “relative binding free energy” value was -0.18 kcal/mol. TGGTACACGTGTCGGA was tested, and the “relative binding free energy” value was 0.14 kcal/mol. In the case of ACAGGCACGTGAAGGG, the “relative binding free energy” value was 0.16 kcal/mol. For GAAGTCACGTGGGGTC, the “relative binding free energy” value was 0.17 kcal/mol. For AACAGCACGTGTTTTG, the “relative binding free energy” value was 0.05 kcal/mol. TTGGTCACGTGTTGGC was tested, and the “relative binding free energy” value was 0.34 kcal/mol. With GTTTACACGTGCGGTA the “relative binding free energy” value was 0.17 kcal/mol. For CTTTTCACGTGATAGA, the “relative binding free energy” value was 0.35 kcal/mol. In the case of CGAGGCACGTGGGATG, the “relative binding free energy” value was -0.15 kcal/mol. In the case of ATGGGCACGTGTCGGG, the “relative binding free energy” value was -0.03 kcal/mol. With TGGTACACGTGTGAAA the “relative binding free energy” value was 0.12 kcal/mol. TGGTGCACGTGCGGAA was tested, and the “relative binding free energy” value was 0.04 kcal/mol. AAGTACACGTGGAGTT was tested, and the “relative binding free energy” value was 0.08 kcal/mol. With TTCGCCACGTGGAGTG the “relative binding free energy” value was -0.03 kcal/mol. With GGTGTCACGTGGTGGG the “relative binding free energy” value was 0.08 kcal/mol. With TAGCGCACGTGGGGTG the “relative binding free energy” value was -0.33 kcal/mol. For TGTTCCACGTGCAGGT, the “relative binding free energy” value was 0.12 kcal/mol. In the case of TAGGACACGTGTTAGG, the “relative binding free energy” value was 0.03 kcal/mol. GGTTTCACGTGCAGCG was tested, and the “relative binding free energy” value was 0.17 kcal/mol. For CTGTGCACGTGGTTAT, the “relative binding free energy” value was -0.22 kcal/mol. With AAGGTCACGTGGGGAA the “relative binding free energy” value was 0.06 kcal/mol. In the case of ACATTCACGTGGTGTG, the “relative binding free energy” value was 0.18 kcal/mol. ATTTTCACGTGTGGGT was tested, and the “relative binding free energy” value was 0.3 kcal/mol. With TGTTTCACGTGCAATT the “relative binding free energy” value was 0.36 kcal/mol. In the case of GTGCTCACGTGGGAGG, the “relative binding free energy” value was 0.25 kcal/mol. With ATATTCACGTGAAGAT the “relative binding free energy” value was 0.27 kcal/mol.
